95 molecules from PubChem BioAssay AID485344 (National Center for Advancing Translational Sciences (NCATS), 2010) can be followed below.

One may read the inhibition as the relative decrease from the control value, in per cent.

The whole screen tested about 340,000 compounds, of which about 6,900 (2%) were called active. Cut-off read from the data, not from the text of the source: active = inhibition above about 30%; inactive = below that, where a call was filed. This is a selection; strong and weak results do not stand in their true shares. The source gives no active or inactive call for entries shown without one.

The target of the test is D(2) dopamine receptor (Homo sapiens) (UniProt P14416). Description: HTS Assay for Allosteric Antagonists of the Human D2 Dopamine Receptor: Primary Screen for Antagonists. Note: 0% is about no effect. The following applies: HEK293 TREx D2 cells, calcium flux, dopamine EC80; at 10 µM; stronger effect = higher value. In a few lines: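 Tetracycline-induced HEK293 TREx cells expressing D2 receptor forced-coupled to calcium signalling, loaded with no-wash calcium dye. Compounds added and calcium flux read 180 s, then dopamine added at EC80 and read a further 180 s.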
Sequence of UniProt P14416 (P14416 whole entry, looked up): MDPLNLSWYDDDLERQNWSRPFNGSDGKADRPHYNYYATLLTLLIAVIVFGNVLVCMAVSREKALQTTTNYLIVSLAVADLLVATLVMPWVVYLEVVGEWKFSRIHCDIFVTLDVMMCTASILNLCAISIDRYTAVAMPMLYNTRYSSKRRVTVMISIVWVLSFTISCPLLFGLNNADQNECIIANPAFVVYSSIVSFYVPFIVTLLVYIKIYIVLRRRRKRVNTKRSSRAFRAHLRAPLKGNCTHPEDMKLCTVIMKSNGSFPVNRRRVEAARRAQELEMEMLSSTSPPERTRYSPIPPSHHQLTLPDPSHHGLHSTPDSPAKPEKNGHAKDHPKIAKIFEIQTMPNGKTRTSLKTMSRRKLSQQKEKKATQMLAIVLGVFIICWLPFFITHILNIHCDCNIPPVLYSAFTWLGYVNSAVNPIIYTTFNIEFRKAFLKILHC
On the technique in general: Calcium assays in cells follow changes in intracellular calcium, usually with a dye or a luminescent sensor.
Turning to `O=C(NC1CCN(Cc2ccccc2)CC1)c1cccc(S(=O)(=O)Nc2ccc(F)cc2)c1`, the inhibition is active: 45.3%.

In the case of `CN(C)c1ccc(CNC(=O)C2CCCN(S(=O)(=O)c3ccc4c(c3)oc(=O)n4C)C2)cc1` (stereo not given), the inhibition amounted to 6.14%.

Turning to `CCc1nonc1NC(=O)c1oc2ccc(F)cc2c1C`, the inhibition amounted to 2.03%.

Take `CCCCC[n+]1ccn(-c2nc3ccccc3nc2[N-]S(=O)(=O)c2ccc(C)cc2)c1`: the inhibition was active: 37.7%.

Turning to `CC1=C(C(=O)Nc2ccc(Cl)cc2)C(c2ccccc2C)n2ncc(C(=O)Nc3ccc(C)cc3)c2N1` (stereo not given), the inhibition is -3.35%.

As to `COc1ccc(CCNC(=O)C(=O)NCC(c2ccc3c(c2)OCO3)N2CCOCC2)cc1` (stereo not given), the inhibition came to 8.79%.

Regarding `COc1ccc(OC)c(-c2nc3c(C#N)c[nH]n3c2NC2CCCCC2)c1`, the inhibition was -0.641%.

Consider `CN(C)c1ccc(CN(CC2CCCO2)C(=O)COc2ccccc2Cl)cc1` (stereo not given), for which the inhibition is -13.6%.

Regarding `COc1ccccc1CNC(=O)Cc1c(C)c2c(cc(C)c3c(C)coc32)oc1=O`, the inhibition is 6.88%.

Take `COc1ccc(N(CC(=O)NCc2ccc(F)cc2)S(=O)(=O)c2c(C)noc2C)cc1`: the inhibition is 2.15%.

`COc1ccc(C(=O)NCCc2cnc[nH]2)cc1OC`: the inhibition was active: 34.9%.

Regarding `N#Cc1ccc(-c2cccs2)nc1SCc1c(F)cccc1Cl`, the inhibition is -4.99%.

With `Cc1ccccc1C(=O)N(Cc1ccc(N(C)C)cc1)Cc1ccco1`, the inhibition was determined as 13.7%.

For `COc1ccc(N2CCN(C(=O)CSc3n[nH]c(-c4ccccc4)n3)CC2)cc1`, the inhibition was -2.58%.

Turning to `COCCCNS(=O)(=O)c1cc(-c2onc(C)c2C)ccc1OC`, the inhibition was -0.137%.

Regarding `Cc1c(C(=O)NCc2ccccc2)c(-c2ccccc2)nn1-c1ccccc1`, the inhibition was active: 35.9%.

As for `COc1ccc(-c2noc(CCC(=O)N(C)c3ccccc3C)n2)cc1`, the inhibition is -3.09%.

As to `CN(C)C(=O)c1ccc(NC(=O)Cn2nnnc2-c2ccccc2F)cc1`, the inhibition is -8.4%.

Regarding `COc1ccc(Nc2c3c(nc4ccc(NC(=O)/C=C/c5cc(OC)c(OC)c(OC)c5)cc24)CCCC3)cc1OC`, the inhibition is -8.05%.

Take `O=C(Nc1ccc(-c2nc3cc(NC(=O)c4ccccc4Cl)ccc3o2)cc1)c1ccccc1Cl`: the inhibition was -9.95%.

For `O=C(CCc1nc2cccnc2n1Cc1cccs1)Nc1cccc(C(F)(F)F)c1`, the inhibition was 4.93%.

Consider `NC(=O)c1ccccc1NC(=O)C1CCCN(c2ncnc3onc(-c4ccc(F)cc4)c23)C1` (stereo not given), for which the inhibition stood at 12%.

`O=C(NN1CCN(Cc2ccccc2)CC1)c1ccc(Cl)cc1`: the inhibition was active: 67.1%.

As to `O=C(c1ccc(C(F)(F)F)cc1)N1CCC(c2noc(-c3ccc(S(=O)(=O)N4CCCC4)cc3)n2)CC1`, the inhibition was determined as 18%.

For `OC(C#CCN1CCCCCC1)(c1ccccc1)c1cccnc1` (stereo not given), the inhibition was active: 58.3%.

On to `Cc1ccc(NC(=O)CN2C(=O)CCc3cc(S(=O)(=O)N4CCOCC4)ccc32)cc1N(C)C`, for which the inhibition worked out at 19.5%.

For `COCCN=c1scc(-c2ccco2)n1/N=C/c1ccc(O)c(O)c1O`, the inhibition is active: 76.9%.

For the molecule `O=C(NC1CCCC1)c1ccc2c(c1)N(Cc1ccc(C(F)(F)F)cc1)C(=O)c1ccccc1S2`, the inhibition was -2.7%.

`Cc1ccccc1Cn1c(=O)n(Cc2ccc3c(c2)OCO3)c(=O)c2oc3ccccc3c21`: the inhibition is -4.36%.

Regarding `CCCN1CCC(NC(=O)Nc2cc(Cl)ccc2OC)CC1`, the inhibition is active: 84.9%.

Consider `COc1ccc(NC(=O)Cn2c(C)c3cnn(-c4ccccc4)c(=O)c3c2C)c(OC)c1`, for which the inhibition was 8%.

`Cc1ccc(N(CC(=O)NC(C)c2ccccc2)S(=O)(=O)c2c(C)noc2C)cc1` (stereo not given): the inhibition was 18.5%.

With `Cc1cccc(-c2noc(C3CC(=O)N(c4ccc5c(c4)OCCO5)C3)n2)c1` (stereo not given), the inhibition was -6.93%.

Regarding `CCOc1ccc(C2c3c(-c4ccccc4O)n[nH]c3C(=O)N2Cc2ccncc2)cc1` (stereo not given), the inhibition came out at 9%.

`CCc1ccc(C(=O)c2cn(CC(=O)Nc3ccc(F)cc3)c3cc4c(cc3c2=O)OCO4)cc1`: the inhibition is 14.8%.

In the case of `Cc1cc(OCC(=O)Nc2sc3c(c2C(N)=O)CCCC3)ccc1C(C)C`, the inhibition is 15.5%.

`COc1ccc(-c2nc(SCC(=O)NCCCc3ccccc3)n[nH]2)cc1`: the inhibition came out at 7.65%.

With `Cc1ccc2occ(CC(=O)Nc3ccc(S(N)(=O)=O)cc3)c2c1`, the inhibition was -7.2%.

`CCN(CC)CCCNC(=O)c1oc2c(c1C)-c1nn(Cc3ccc(Cl)cc3)cc1CC2`: the inhibition was found to be 14.9%.

On to `COc1ccc(NC(=O)CCc2c(C)nn(-c3ccc(N4CCOCC4)nn3)c2C)cc1Cl`, for which the inhibition was -0.0244%.

`OCC1(Cc2cccc(F)c2)CCN(Cc2ccc3cccc(F)c3n2)CC1`: the inhibition was active: 39.9%.

With `CC(C)(C)c1ccc(C(=O)Nc2ccccc2C(=O)OCc2cc(=O)n3ccsc3n2)cc1`, the inhibition was 12.7%.

In the case of `Cc1ccc(CN2CCN(C3CCN(C(=O)OC(C)(C)C)CC3)C(=O)C2=O)cc1`, the inhibition worked out at 0.323%.

Regarding `CCOC(=O)CC(NC(=O)Cn1nnc(-c2ccccc2C)n1)c1ccc(OC)cc1` (stereo not given), the inhibition came to 2.46%.

As for `Cc1cc2nc3c(=O)n(C)c(=O)n(C)c3nc2cc1N=CN(C)C`, the inhibition was -8.42%.

In the case of `CCC(=O)N1CCc2cc(Br)cc(S(=O)(=O)CCC(=O)Nc3ccccc3C)c21`, the inhibition is -5.22%.

Consider `CC(C)C(=O)NCc1cc(-c2ccc(Cl)cc2)no1`, for which the inhibition was active: 41.7%.

`Cc1cc(C)c2c(=O)cc(CSCC(=O)Nc3nnc(C)s3)[nH]c2c1`: the inhibition was -3.67%.

Consider `CCOC(=O)C1C(=O)Nc2nc(C)nn2C1c1ccccc1` (stereo not given), for which the inhibition was active: 41.9%.

In the case of `CCCNC(=O)Nc1cc(C(=O)NCc2cccc(OCC)c2)ccc1N1CCCC1`, the inhibition was determined as 10.2%.

On to `COc1ccc(N(C)C(=O)NCc2noc3ccc(C)cc23)c(OC)c1`, for which the inhibition was -6.63%.

As to `COc1ccc(C(=O)CCC(=O)Nc2ccccc2C)cc1`, the inhibition was -10.5%.

For the molecule `CC(C)(C)C1CCc2nc(NC(=O)Cc3ccc(Cl)cc3)sc2C1` (stereo not given), the inhibition stood at 0.468%.

As for `CCC(Sc1nncn2c1cc1sccc12)C(=O)Nc1cccc(OC)c1` (stereo not given), the inhibition was -8.57%.

In the case of `Cc1cccc(NC(=O)C2CCCN(S(=O)(=O)c3c(C)noc3/C=C/N(C)C)C2)c1C` (stereo not given), the inhibition turned out to be 12%.

As for `O=C(Nc1ccc(F)c(F)c1)C1CCCN(S(=O)(=O)c2cccc3nonc23)C1` (stereo not given), the inhibition was determined as 20.4%.

`Cc1ccc(C)c(N2CCN(C(=O)CN3C(=O)CSc4c3c(C)nn4-c3ccccc3)CC2)c1`: the inhibition is 3.91%.

In the case of `CCN(CC)CCCCN1c2ccccc2Sc2ccccc21`, the inhibition was active: 47.1%.

As to `CN(C(=O)CSc1nnc2[nH]c(=O)cc(-c3ccccc3)n12)c1ccccc1`, the inhibition was -10.1%.

Regarding `Cc1ccc(C)c(NC(=O)CCNS(=O)(=O)c2ccc3c(c2)CCCC(=O)N3)c1`, the inhibition was found to be 3.14%.

`COCCNC(=O)c1ccc2c(c1)N(Cc1cccc(Cl)c1)C(=O)c1ccccc1S2=O` (stereo not given): the inhibition came to 2.75%.

`CCOC(=O)c1cc(-c2ccccc2)n(CC(=O)NCc2ccccc2OC)c1C`: the inhibition is -14.5%.

For `Fc1ccc(CNc2ncnc3c2c(-c2ccccc2)cn3-c2ccccc2)cc1`, the inhibition was 2.24%.

Take `Cn1c(=O)n(C)c2cc(S(=O)(=O)Nc3ccccc3C(=O)O)ccc21`: the inhibition is 12%.

In the case of `CCOc1ccccc1NS(=O)(=O)c1c(-c2ccc(C)cc2)csc1C(=O)OC`, the inhibition came out at 4.49%.

Regarding `Cc1c2cnn(-c3ccccc3)c(=O)c2c(C)n1CCCC(=O)Nc1ccc(F)cc1F`, the inhibition was -7.6%.

For `NC(=O)c1cc(S(=O)(=O)NCC2CCC(C(=O)Nc3cccc(Cl)c3)CC2)cs1` (stereo not given), the inhibition is -2.94%.

With `Cc1c(Cl)cccc1NC(=O)CCS(=O)(=O)c1ccc(Br)s1`, the inhibition stood at 28.2%.

As for `CC(C)(C)C1CCc2onc(C(=O)Nc3sc4c(c3C(N)=O)CCCC4)c2C1` (stereo not given), the inhibition stood at 3.1%.

Regarding `CCOC(=O)c1cc(-c2ccccc2)n(CCCC(=O)Nc2ccc(CC)cc2)c1C`, the inhibition stood at 11.5%.

As for `O=C(c1ccc2c(Cl)c3c(nc2c1)CCCC3)N1CCN(c2ccccc2)CC1`, the inhibition amounted to 1.21%.

For the molecule `CCCc1nnc(NC(=O)c2nc(S(=O)(=O)Cc3ccc(C)cc3)ncc2Cl)s1`, the inhibition was -6.72%.

As to `Cc1ccc(NC(=O)CSc2nc3ccccc3c3nc(CCn4c(C)nc5ccccc54)nn23)cc1F`, the inhibition is -8.9%.

On to `Cc1ccc2nc(-c3ccccn3)c(Nc3ccc(F)cc3)n2c1`, for which the inhibition was -20.3%.

Turning to `CCC(C)NC(=O)c1ccc2c(c1)N(Cc1ccccc1)C(=O)c1ccccc1S2(=O)=O` (stereo not given), the inhibition is -1.82%.

With `CN1CCN(CCCNC(=O)c2cnn(-c3ccccc3)c2C2CCN(C(=O)OC(C)(C)C)CC2)CC1`, the inhibition is 0.776%.

With `CCC(Oc1ccccc1)C(=O)Nc1ccccc1OCc1cc(=O)n2ccccc2n1` (stereo not given), the inhibition is 21%.

`O=C(CCN1CCN(c2ccc([N+](=O)[O-])cc2)CC1)c1ccc(Cl)cc1`: the inhibition was active: 33.8%.

Turning to `CC1=C(C(=O)Nc2ccc(Cl)cc2)C(C(C)C)n2nc(SCc3cccc(C)c3)nc2N1` (stereo not given), the inhibition stood at 4.12%.

Turning to `Cc1cccc(CNC(=O)c2cnc3sc(N4CCCCC4)nn3c2=O)c1`, the inhibition is -4.71%.

`CCc1nn(CC(=O)Nc2cccc(C)c2C)c(=O)c2cc3sccc3n12`: the inhibition was found to be 2.65%.

Consider `Cc1ccc(CCNC(=O)C2CCCN(Cc3nc(-c4cccc(Cl)c4)oc3C)C2)cc1` (stereo not given), for which the inhibition was -4.16%.

As for `COc1ccccc1N1CCN(CC(=O)Nc2c(C)n[nH]c2C)CC1`, the inhibition is active: 53.4%.

`COc1ccc(-c2noc(C3CC(=O)N(c4cc(C)cc(C)c4)C3)n2)cc1` (stereo not given): the inhibition was -22.7%.

Regarding `COc1ccc(/C=C/c2nc(C#N)c(N3CCN(c4ccccc4)CC3)o2)cc1OC`, the inhibition amounted to 10.1%.

On to `O=C(Cc1ccc(F)cc1)N1CCC(c2nc3c(nnn3Cc3ccc(Cl)cc3)c(=O)[nH]2)CC1`, for which the inhibition is 7.58%.

`CN(C(=O)CSc1cn(CC(=O)N2CCCCC2)c2ccccc12)c1ccccc1`: the inhibition is 27.2%.

Consider `Cc1cccc(NC(=O)C(=O)NCC(c2cccnc2)N2CCOCC2)c1` (stereo not given), for which the inhibition was -3.9%.

Consider `CCCOc1ccc(C2c3c(-c4ccccc4O)n[nH]c3C(=O)N2Cc2ccncc2)cc1OCC` (stereo not given), for which the inhibition was determined as 0.145%.

As for `COc1ccc(C)cc1NC(=O)C(=O)NCCc1csc(-c2ccc(C)cc2)n1`, the inhibition worked out at 2.77%.

For `C/C(=N/NC(=O)c1ccncc1)c1c[nH]c2ccccc12`, the inhibition was active: 47.9%.

For the molecule `CCOC(=O)c1ccc(NC(=O)c2oc3ccc4c(c3c2C)C(=O)CC(C)(CC)O4)cc1` (stereo not given), the inhibition is -4.35%.

With `Cn1c(=O)c2c(SCC(=O)NCc3ccco3)nc(-c3ccccc3Cl)nc2n(C)c1=O`, the inhibition stood at 10%.

For the molecule `Cc1ccc(NC(=O)CSc2nc3c(c(=O)[nH]2)CN(Cc2ccc4c(c2)OCO4)CC3)cc1C`, the inhibition is 16.1%.

Take `Cc1ccc(NC(=O)CN2CCN(c3ccccn3)CC2)cc1S(=O)(=O)N(C)C`: the inhibition was active: 76.8%.
